Measured values from the RNAGym collection of RNA variant scans (doi:10.7554/elife.90254).
The source gives no read counts; variants with many changes may rest on few reads.

B1: LINE1-full (parent)
chain: UACGUAGGUGGUUUUCCCCUGAUAGUGCUAAGGGGGCCUGGAAGUUUGGACUGGGCAGAGCUCAACACAGCGUGGCAAAGUGGCUGUGGCUAGACUGCCUCUCUGGAUUCCUCGUCACUCAGCAGGGCAUCUCUGAGAGAAAUGCC

Variants of: B1
Assay: self-cleavage, relative activity (ratio to wild type); higher = more cleavage; in vitro, sequencing; the parent is a self-cleaving ribozyme
C56U U87A U96A gave a self-cleavage of 0.04. U104C A136G A141G gave a self-cleavage of 1.89. C3U G35A U100C A124G gave a self-cleavage of 1.39. In the case of U12G C28U U52G U96A U119C, the self-cleavage is reported as 0. Variant U14C C19U A64G U87A has a self-cleavage of 0.22. C16U A42G U87A gave a self-cleavage of 0.12. A43G A65G G74A A142G showed a self-cleavage of 0.1. For A31U A57U A79G U115A, the self-cleavage was 0.04. Variant A22G U52A A124U A141G has a self-cleavage of 1.58. Work on U26A U39C U87C A138G yielded a self-cleavage of 0.05. With U1C U100C C118U the self-cleavage was 1.53. For U39A U45C A50U, the self-cleavage was 1.12. Variant U47C A65G C84A A107G has a self-cleavage of 0. Variant U29C U108A C120A has a self-cleavage of 1.23. Work on A31U A64G C123U yielded a self-cleavage of 0.24. Variant U12C U46C U47C U85A U104C U108C has a self-cleavage of 1.84. U12G U47C A57G A138G showed a self-cleavage of 0. U45A U52A G105A A138G A141G showed a self-cleavage of 0.66. With A24U C28U U45C A78G the self-cleavage was 1.59. With U13C G27A U115C the self-cleavage was 2.02. Work on A57G A59G U143C yielded a self-cleavage of 0.13. U46C U96C U119A showed a self-cleavage of 0.73. U62C G89A U96A showed a self-cleavage of 0. In the case of U29C U46C U62G C123U, the self-cleavage is reported as 0. With A92G U100C A138G the self-cleavage was 0.22. Variant U91C U96A U134A has a self-cleavage of 0.02. Variant U13C A65G U96A has a self-cleavage of 0. Work on U29C G36C U102C A107G yielded a self-cleavage of 1.79. U26A U108C A138G gave a self-cleavage of 1.45. A31G G36C G58U A79G U81A U100A C113A A140G showed a self-cleavage of 0.01. For A2G U14A A64G A121U, the self-cleavage was 0.18. G10A A42U C95U showed a self-cleavage of 0.13. Variant A57G C95U C101G has a self-cleavage of 0.09. With U14C U91C U134C the self-cleavage was 1.08. With C98U U108A A141C the self-cleavage was 0.16. In the case of U81G U85A C113A, the self-cleavage is reported as 0.14. With U12A A22U U39G U87C U109A the self-cleavage was 0. A57G A117U A141G gave a self-cleavage of 0.56. Work on A69U C71U U85C yielded a self-cleavage of 0.08. Variant U12A U62A C63U U87A has a self-cleavage of 0.07. A6G G8A U47A gave a self-cleavage of 0.85. Work on A6G U29A G144U C145U yielded a self-cleavage of 0.85. U13C A79U U115C U132C showed a self-cleavage of 1.53. G32U A69G U100A showed a self-cleavage of 0.21. Work on A78G U85A U132C yielded a self-cleavage of 0.05. For U29C G34A U108C A117U, the self-cleavage was 1.67. In the case of U12C G74A G126A, the self-cleavage is reported as 1.03. Work on A42G U87A U91C A124U yielded a self-cleavage of 0.24. In the case of U100C U132G U134A A141G, the self-cleavage is reported as 1.62. A43G U91C U130C gave a self-cleavage of 0.56. C113U U132C A140G showed a self-cleavage of 0.17. U47A A79G U100C U119A A138U gave a self-cleavage of 1.17. U13C U14C U52A A59G gave a self-cleavage of 0.14. With U23C A31U C68U A77G the self-cleavage was 0.25. In the case of A78G A121G G135A, the self-cleavage is reported as 2.32. Variant U26A A30C U45C U96A A142G has a self-cleavage of 0. In the case of U47C C90U U108C U143C, the self-cleavage is reported as 0.07. With A2G A42G C56G A117G the self-cleavage was 0.19. For A64C U104A U108C, the self-cleavage was 0.19. Variant U47C A77U A94G has a self-cleavage of 0.09. With A2G A30G A57G C76U U109C A140G the self-cleavage was 0.37. In the case of A57U U100C U143A, the self-cleavage is reported as 0.22. With A50G U52C U109A A140G the self-cleavage was 0. For U46C U100C A138G, the self-cleavage was 1.75. U1C U62C A79G A140G showed a self-cleavage of 0.07. U23A A50G U100A C113A U132A showed a self-cleavage of 0.4. With C17U A42G U46A the self-cleavage was 1.19. With A30G A57U A141G the self-cleavage was 0.33. U9C G21U U39A U47A A140G gave a self-cleavage of 1.12. In the case of U14C A24G U39C G41U, the self-cleavage is reported as 0.77. U13C U100A U115C showed a self-cleavage of 2.3. With U5C U39A A124G the self-cleavage was 0.51. For U12G U47C U104C U115A, the self-cleavage was 1.84. A43U A78G A124U A136U showed a self-cleavage of 1.58. For U26C U39A A78G U85A U104A U143C, the self-cleavage was 0.06. A65G U96C G105A showed a self-cleavage of 0.09. G34A U119C A129U U143C gave a self-cleavage of 1.33. In the case of U62C G114A A142G, the self-cleavage is reported as 0.07. With U9A U85C C116A A124U A141U the self-cleavage was 0.29. A43G U62C G127U gave a self-cleavage of 0.11. With G7C A24G U91C U134C the self-cleavage was 1.53. Work on U47C A140G C145U yielded a self-cleavage of 1.31. For U14C A65G A121C, the self-cleavage was 0.29. Work on U13C A24G U108C yielded a self-cleavage of 0.84. With U12A A22G A24G U91C U115A the self-cleavage was 0. U14C U47C U62A showed a self-cleavage of 0.17. Work on G97A U100C C116U A129G U132C yielded a self-cleavage of 0.12. Variant U29C A79U A140G has a self-cleavage of 1.99. With U46G A57U A79G A140G the self-cleavage was 0.13. For U23C G49U A59G A140G A142G, the self-cleavage was 0.14. A30G U62A A124U A138G showed a self-cleavage of 0.06. With U12C A43G A64G the self-cleavage was 0. A65G G97A U109A gave a self-cleavage of 0.01. With A30U U104A A138C the self-cleavage was 1.39. With U15C U91G A140C the self-cleavage was 0.21. With A57G A78G U100A the self-cleavage was 0.77. For C37G U39A A50G, the self-cleavage was 0.07. Variant U9A A50G A136G has a self-cleavage of 0.89. Work on U9C U13A A136G yielded a self-cleavage of 1.53. Work on A65G A77G A140G yielded a self-cleavage of 0.21. For A64G U102A U134C, the self-cleavage was 0.23. In the case of A57G U112C U119C, the self-cleavage is reported as 0. U12C U115C A136G gave a self-cleavage of 2.02. For A6G A65G C101U, the self-cleavage was 0.29. U12C C19U U104C showed a self-cleavage of 0.77. U29C A50G G53U G58A U115A A141G gave a self-cleavage of 0.03. Variant A59G U100C U115A has a self-cleavage of 0.16. Work on U15C U20C A69G A140G yielded a self-cleavage of 0.58. Variant U62A U108C G139A has a self-cleavage of 0.01. U15C U46A U85C U119A A121U A138G gave a self-cleavage of 0.1. Work on U5C U47A U115C yielded a self-cleavage of 0.5. Variant U14C C38U U46A A141C has a self-cleavage of 1.01. A42G A57G G70U U102C gave a self-cleavage of 0.05. In the case of A42G A67U U85A, the self-cleavage is reported as 0.04. A31U U85C A129U gave a self-cleavage of 0.48. Work on A42G A57G U102C yielded a self-cleavage of 0. U9A A78G A142G gave a self-cleavage of 1.05. Work on A6C A94G U96A A124U A129U yielded a self-cleavage of 0.09. Work on U47C G127A A140G yielded a self-cleavage of 1.17. For A24G A43G A94G, the self-cleavage was 0. In the case of C56U U62C A141G, the self-cleavage is reported as 0.06. For A42G U47A A69G A92G G122A, the self-cleavage was 0.08. In the case of G36C A42C A79G, the self-cleavage is reported as 1.38. Work on U23A A24G A64G A94G yielded a self-cleavage of 1.15. U52C U104A A121U showed a self-cleavage of 1.92. U14C U47C U104C G125U U143A showed a self-cleavage of 1.5. For G7U G11A A43G A57U U73G U143C, the self-cleavage was 0.3. With A22U A78G U130A the self-cleavage was 1.08. A57G C63A A64G gave a self-cleavage of 0. For U12A U47C G54A, the self-cleavage was 1.87. Variant G97A U109A A142C has a self-cleavage of 0.07. U15G A43G A65G A78G U96A U132C showed a self-cleavage of 0. With U13A G72A U115C the self-cleavage was 0.91. Variant A2U U47C U104A has a self-cleavage of 0.56. In the case of U39C A77G A94U, the self-cleavage is reported as 0.95. A42G U62A A64U gave a self-cleavage of 0.09. A79G U102A G106A showed a self-cleavage of 1.05. Work on G4A U13C A138G yielded a self-cleavage of 0.78. With G21A A50G C63A the self-cleavage was 0.02. A30G U46C U130C A141G showed a self-cleavage of 1.53. A24C A78G U143G gave a self-cleavage of 1.39. U29C U62C U108C gave a self-cleavage of 0. With A2G A50G A142G the self-cleavage was 0.79. Variant U12C U45C A107G has a self-cleavage of 0.46. U73A C99G A138G gave a self-cleavage of 0.77. In the case of A31G U47A C63U, the self-cleavage is reported as 0.16. Variant G21U A94G U130A has a self-cleavage of 0.15. In the case of A22G G32A U109A, the self-cleavage is reported as 0.9. U20C U23C A43G gave a self-cleavage of 1.92. Work on U13A A79G C98A U104A yielded a self-cleavage of 0.04. U14C A42G A64G showed a self-cleavage of 0.39. In the case of A2U U15C A24G A30C G34A A65G, the self-cleavage is reported as 0. Variant U45C U52C G83A A136G has a self-cleavage of 1.48. For A57U A77G A124U, the self-cleavage was 0.21. Variant U81A U112A U134C A140U has a self-cleavage of 2.05. U20A G34A U108C A142G gave a self-cleavage of 1.15. U12C C19U U102C gave a self-cleavage of 0.53. Work on U20C G35U U96C U108C yielded a self-cleavage of 0. A30U A31G A64G U109A U130C showed a self-cleavage of 0. For U13C A59G U62C C120U, the self-cleavage was 0. Variant A67G A138G A140G has a self-cleavage of 0.48. Work on U39C U52A A67G A78G A136U yielded a self-cleavage of 0. Variant U9C A43G C84U A117C has a self-cleavage of 0.38. With A24U U62A A69G U100C A107G the self-cleavage was 0. In the case of U73G A77G A129G, the self-cleavage is reported as 2.87. In the case of C17A A50G U102C, the self-cleavage is reported as 0.77. In the case of U9C G105A A117G, the self-cleavage is reported as 1.66.
